Source: a collection of fitness landscapes (doi:10.1016/j.celrep.2020.107928)
Over roughly 81,000 sequences, “one-hybrid fitness for binding parS DNA” has its median near -0.17; the highest 2% begin near 0.51. The list shows a part of the results.

B1: Caulobacter ParB omega fusion; a variant is named by its letters at X, in order, B8GW30 (parent)
chain: MESVVVGEPGMSEGRRGLGRGLSALLGEVDAAPAQAPGEQLGGSREAPIEILQRNPDQPRRTFREEDLEDLSNSIREKGVLQPILVRPSPDTAGEYQIVAGERAWRAAQRAGLKTVPIMVRELDDLAVLEIGIIENVQRADLNVLEEALSYKVLMEKFERTQENIAQTIGKSXSHVANXMRLLXLPDEVQSYLVSGELTAXHARAIAAAADPVALAKQIIEGGLSVRETEALARKAPNLSAGKSKGGRPPRVKDTDTQALESDLSSVLGLDVSIDHRGSTGTLTITYATLEQLDDLCNRLTRGI

Variants of: B1
Assay: one-hybrid fitness for binding parS DNA (scaled: cognate 1, non-cognate 0); higher = stronger binding
Details: with parS DNA site
In short: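 Pre- and post-selection plasmids were Illumina-sequenced, three replicate libraries were pooled, and any variant with under 10 reads was removed. The libraries were Caulobacter ParB with four specificity codons randomised, selected in E. coli USO through a HIS3 reporter whose site is 19 bp from the promoter. Cells grew 48 hours at 37°C on M9 without histidine, with 0.1 mM IPTG and 5 mM 3-AT. Fitness is the log change in variant-to-wild-type read ratio, rescaled against cognate and non-cognate.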

one-hybrid fitness for binding parS DNA, 0.318:
RATM

one-hybrid fitness for binding parS DNA, 0.387:
RTVN

one-hybrid fitness for binding parS DNA, 1.02:
RLMG

one-hybrid fitness for binding parS DNA, 0.352:
RISM

one-hybrid fitness for binding parS DNA, 0.832:
RMKS

one-hybrid fitness for binding parS DNA, 0.232:
RTLH

one-hybrid fitness for binding parS DNA, ≤ 0.2:
QSTD
FTYG
WLAY
GTED
SLKN
LVTL
FLDR
YMCG
QCHV
EQKS
KSKK
LRTP
TGKY
KASR
SEAW
LFKF
MYNG
THNK
VDKT
LCIN
DAHM
RDNQ
WHKS
YKKR
FWPT
WFNS
LGSA
RCVF
TLQG
THMN
DRQW
TKDC
IYEM
WYMC
RPSK
QAYK
AYET
CNIS
DPDG
QKTE
TPTP
VHWA
AENC
TCPS
YRMR
VIIV
GTSR
TTYN
HCLE
ELTM
SMHV
SKCF
CYSV
FCTT
TACM
SFPN
HQKG
SALC
QTYQ
CAKV
HHLS
AQKS
EPTL
RENK
ARKI
QTLP
SHCY
LPAD
YPMS
QWPS
VPPT
RKSD
DNLT
TQCH
GAMS
HVVC
NFRT
KGCT
WALR
HHHI
DTAR
EKLT
WLFT
TTCR
QAIY
KCTI
QPTE
WLCG
PSGV
AMIC
GLRV
AEPD
LHMV
ICNR
PTSG
EYSS
ALWC
KIFR
QLPS
WYVR
QDRI
SHAS
TWNV
GSAM
LASC
KCML
ILVP
HCKL
QTHK
DASQ
VQKV
IIMS
SHWS
AASR
QFDM
RAPD
QHAL
IHYA
GTEM
MLAC
TKSS
VLEI
QRSS
PACV
TFRY
WCPG
QTIV
DLSP
TAYP
TYYA
FCYG
RFAD
ERWR
QKPP
QNES
LKVS
QGHL
ACAY
SHTF
SLDN
PHSM
PDKC
MPFG

one-hybrid fitness for binding parS DNA, 0.85:
RFLC

one-hybrid fitness for binding parS DNA, 0.231:
RCDH

one-hybrid fitness for binding parS DNA, 0.285:
RFTM

one-hybrid fitness for binding parS DNA, 0.248:
RWYY
